In the supplement of paper PMC9446081:
Among all 39,000 compounds or so, about 220 (0.56%) showed activity. The list shows a part of the results.

system: Escherichia coli K-12 BW25113; test: relative growth (OD600 normalised to plate interquartile mean) (fraction); higher = less growth inhibition, active = 0.2 or less; conditions: 50 µM; LB; incubation time: overnight (16-24 h)
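Also: static incubation at 37 °C against the wild-type strain, values averaged over two biological replicates.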

SMILES | relative growth
O=C(C[C@H]1CC[C@H]2[C@@H](COC[C@@H](O)CN2C(=O)Nc2ccc(Cl)c(Cl)c2)O1)NCc1ccc(Cl)c(Cl)c1 | inactive: 0.991
C[C@@H]1CN([C@H](C)CO)C(=O)c2cc(NC(=O)CCC(F)(F)F)ccc2O[C@H]1CN(C)S(=O)(=O)c1cn(C)cn1 | inactive: 0.861
C[C@H]1CN([C@@H](C)CO)C(=O)c2cc(NS(=O)(=O)c3ccc(Cl)cc3)ccc2O[C@H]1CN(C)Cc1ccc(C(=O)Nc2ccccc2N)cc1 | inactive: 1.02
CC1C=CC=CC=CC=CC=CC=CC=CC(OC2OC(C)C(O)C(N)C2O)CC(O)C(C(=O)O)C(O)CC(=O)CC(O)CC(O)CC(O)CC(=O)CCCC(=O)CC(=O)OC1C(C)CC(C)C(O)CC(=O)c1ccc(N)cc1 (centres undefined) | inactive: 1.11
COc1ccccc1NC(=O)N(C)C[C@@H]1Oc2ncc(C#CCN(C)C)cc2C(=O)N([C@@H](C)CO)C[C@@H]1C | inactive: 1.01
Cc1ccc(S(=O)(=O)Nc2ccc3c(c2)C(=O)N([C@H](C)CO)C[C@@H](C)[C@H](CN(C)Cc2ccc(C(F)(F)F)cc2)O3)cc1 | inactive: 1.03
COCC(=O)N1CC(=O)N2[C@H](CO)[C@@H](c3ccc(C#Cc4cccnc4)cc3)[C@H]2C1 | inactive: 1.02
COC(=O)c1cc(=O)n2ccccc2c1C#N | inactive: 0.98
C[C@@H]1CCCCO[C@H](CN(C)C(=O)Nc2ccc(F)cc2)[C@H](C)CN([C@H](C)CO)C(=O)c2cc(NC(=O)CCC(F)(F)F)ccc2O1 | inactive: 1.03
C[C@@H]1CN([C@@H](C)CO)C(=O)c2cc(NC(=O)c3ccncc3)ccc2O[C@@H]1CN(C)C(=O)Nc1ccc2c(c1)OCO2 | inactive: 0.991
C[C@@H]1CN([C@@H](C)CO)C(=O)c2cccc(NS(C)(=O)=O)c2O[C@H]1CN(C)S(=O)(=O)c1cccs1 | inactive: 1.01
C[C@H](CO)N1C[C@H](C)[C@H](CN(C)C(=O)Nc2ccccc2)Oc2c(NS(=O)(=O)c3cn(C)cn3)cccc2C1=O | inactive: 0.959
C[C@H](CO)N1C[C@H](C)[C@H](CN(C)Cc2ccc(C(F)(F)F)cc2)OCCCC[C@H](C)Oc2ccc(NC(=O)Nc3ccccc3)cc2C1=O | inactive: 1.05
C[C@@H]1CCCCO[C@@H](CN(C)S(=O)(=O)c2cn(C)cn2)[C@H](C)CN([C@@H](C)CO)C(=O)c2cc(NC(=O)Nc3cccc4ccccc34)ccc2O1 | inactive: 1
C[C@H](O)C#Cc1ccc2c(c1)O[C@@H](CN(C)C(=O)CN(C)C)[C@@H](C)CN([C@H](C)CO)S2(=O)=O | inactive: 0.896
C[C@@H]1CN([C@H](C)CO)C(=O)c2cc(NC(=O)CCCN(C)C)ccc2O[C@H]1CN(C)S(=O)(=O)c1ccccc1 | inactive: 0.985
C[C@H](CO)N1C[C@H](C)[C@@H](CN(C)C(=O)Nc2ccc(F)cc2)OCCCC[C@H](C)Oc2ccc(NS(=O)(=O)c3ccc(Cl)cc3)cc2C1=O | inactive: 1.02
C[C@H](CO)N1C[C@H](C)[C@@H](CN(C)S(=O)(=O)c2ccccc2)Oc2c(NC(=O)c3ccncc3)cccc2C1=O | inactive: 1.01
COc1ccc(NC(=O)Nc2ccc3c(c2)C(=O)N([C@@H](C)CO)C[C@@H](C)[C@@H](CN(C)S(=O)(=O)c2ccc(C)cc2)OCCCC[C@H](C)O3)cc1 | inactive: 1.04
COc1ccccc1N1CCN(CC(O)COc2cccc3ccccc23)CC1 (centres undefined) | inactive: 0.8

SMILES | relative growth
C[C@@H]1CCCCO[C@@H](CN(C)C(=O)Cc2ccccc2)[C@@H](C)CN([C@@H](C)CO)C(=O)c2cc(NS(=O)(=O)c3cccs3)ccc2O1 | inactive: 0.991
CO[C@H]1CN(C)C(=O)c2cc(NC(=O)C3CC3)ccc2OC[C@H](C)N(C(=O)CN2CCOCC2)C[C@@H]1C | inactive: 0.95
COc1ccc(NC(=O)N(C)C[C@@H]2Oc3ccc(NS(=O)(=O)c4cn(C)cn4)cc3C(=O)N([C@H](C)CO)C[C@H]2C)cc1 | inactive: 0.981
O=C(Nc1nnn[nH]1)c1cncc(N2CCCC2)n1 | inactive: 0.965
C[C@@H]1CN([C@@H](C)CO)C(=O)Cc2cc(NC(=O)CCCN(C)C)ccc2O[C@@H]1CN(C)Cc1ccc(Oc2ccccc2)cc1 | inactive: 0.964
C[C@H]1CN([C@@H](C)CO)C(=O)c2cc(NC(=O)CCN3CCOCC3)ccc2O[C@@H]1CN(C)C(=O)Nc1ccccc1 | inactive: 0.991
C[C@H]1CN([C@@H](C)CO)C(=O)c2cc(NC(=O)CCCCCC(=O)Nc3ccccc3N)ccc2O[C@H]1CN(C)Cc1ccc(Cl)c(Cl)c1 | inactive: 0.993
C=CCC[C@H](Cc1ccc(F)cc1)C(=O)O[C@H](CNC(=O)[C@@H](CC=C)CC(=O)N[C@@H](CO)Cc1ccccc1)c1ccccc1 | inactive: 1
C[C@H]1CN([C@@H](C)CO)C(=O)CCCn2cc(nn2)CO[C@@H]1CN(C)Cc1ccc(C(=O)Nc2ccccc2N)cc1 | inactive: 0.987
C[C@@H]1CN([C@H](C)CO)C(=O)c2cc(NS(=O)(=O)c3cn(C)cn3)ccc2O[C@@H]1CN(C)Cc1ccccc1 | inactive: 0.913
COc1ccc(NC(=O)Nc2ccc3c(c2)C(=O)N([C@H](C)CO)C[C@H](C)[C@@H](CN(C)C(=O)Nc2ccc(F)cc2)OCCCC[C@H](C)O3)cc1 | inactive: 1.04
Cc1ccc(S(=O)(=O)N(C)C[C@H]2Oc3c(NC(=O)c4cnccn4)cccc3C(=O)N([C@@H](C)CO)C[C@@H]2C)cc1 | inactive: 1.03
C[C@H]1CN([C@@H](C)CO)C(=O)CCCn2nncc2CO[C@@H]1CN(C)C(=O)Nc1ccc(C(F)(F)F)cc1 | inactive: 0.968
O=C(C[C@@H]1CC[C@@H]2[C@H](COC[C@@H](O)CN2C(=O)Nc2ccc(Cl)c(Cl)c2)O1)NCc1ccncc1 | inactive: 0.943
COCC(=O)Nc1ccc2c(c1)C(=O)N(C)C[C@H](OC)[C@@H](C)CN(C(=O)Cc1cccnc1)[C@H](C)CO2 | inactive: 0.988
CCNC(=S)NCC1CC1 | inactive: 0.954
C[C@H](CO)N1C[C@H](C)[C@H](CN(C)S(=O)(=O)c2cn(C)cn2)OCCCC[C@H](C)Oc2ccc(NS(=O)(=O)c3cn(C)cn3)cc2C1=O | inactive: 0.992
CSCCNc1nc(SCCC(F)(F)F)nc2c1ncn2[C@@H]1O[C@H](COP(=O)(O)OP(=O)(O)C(Cl)(Cl)P(=O)(O)O)[C@@H](O)[C@H]1O | inactive: 0.999
COc1ccc(NC(=O)Nc2ccc3c(c2)C(=O)N([C@@H](C)CO)C[C@@H](C)[C@H](CN(C)Cc2ccc(C(F)(F)F)cc2)OCCCC[C@H](C)O3)cc1 | inactive: 0.976
Cn1cnc(S(=O)(=O)N[C@@H]2C=C[C@@H](CC(=O)Nc3ccccc3)O[C@@H]2CO)c1 | inactive: 0.996

SMILES | relative growth
CC(=O)N[C@H]1CC[C@@H](CCNC(=O)C2CC2)O[C@H]1CO | inactive: 0.943
CC(C)NC(=O)Nc1ccc2c(c1)C(=O)N([C@@H](C)CO)C[C@@H](C)[C@H](CN(C)C(=O)Nc1cccc3ccccc13)OCCCC[C@H](C)O2 | inactive: 1
COCC(=O)N1C[C@H](C)[C@@H](OC)CN(C)C(=O)c2cc(NC(=O)Nc3cccc(F)c3)ccc2OC[C@@H]1C | inactive: 1.04
C[C@@H]1CN([C@H](C)CO)C(=O)c2cc(NS(=O)(=O)c3cn(C)cn3)ccc2O[C@@H]1CN(C)Cc1ccncc1 | inactive: 1.02
c1ccc(Nc2ncnc3cc(-c4ccccc4)sc23)cc1 | inactive: 1.03
O=C(c1ccc(Cl)cc1)n1c2ccccc2c2ccccc21 | inactive: 0.995
CC(C)NC(=O)N(C)C[C@@H]1Oc2ccc(NC(=O)CCC(F)(F)F)cc2C(=O)N([C@H](C)CO)C[C@@H]1C | inactive: 0.99
C=CCOC(=O)[C@@H]1[C@H]2C(=O)O[C@H](c3ccccc3)[C@H](c3ccccc3)N2[C@H](c2ccc(OCCOC(=O)[C@H]3C[C@H]4C(=O)N[C@@H](CC(C)C)C(=O)N4[C@H]3c3cccc(OCCO)c3)cc2)[C@@]12C(=O)Nc1ccccc12 | inactive: 1.07
COCC#Cc1cnc2c(c1)C(=O)N([C@@H](C)CO)C[C@H](C)[C@@H](CN(C)C(=O)Nc1ccccc1OC)O2 | inactive: 1
COCC#Cc1ccc([C@H]2[C@H](CO)N3C(=O)CN(C(=O)CN4CCOCC4)C[C@@H]23)cc1 | inactive: 0.989
C[C@H](CO)N1C[C@H](C)[C@@H](CN(C)C)Oc2ccc(NS(=O)(=O)c3ccc(Cl)cc3)cc2CC1=O | inactive: 0.991
C[C@@H]1CN([C@@H](C)CO)C(=O)c2cccc(NC(=O)Nc3ccccc3)c2O[C@H]1CN(C)Cc1ccc(C(=O)Nc2ccccc2N)cc1 | inactive: 0.999
CC12C=CC(=O)C=C1CCC1C2C(O)CC2(C)C1CCC2(O)C(=O)COP(=O)([O-])[O-].[Na+].[Na+] (centres undefined) | inactive: 1.07
Cc1noc(C)c1NC(=O)N(C)C[C@@H]1Oc2cc(C#CCN(C)C)ccc2S(=O)(=O)N([C@H](C)CO)C[C@@H]1C | inactive: 0.976
Cc1noc(C)c1NC(=O)N(C)C[C@H]1Oc2ccc(NC(=O)Nc3cccc4ccccc34)cc2CC(=O)N([C@@H](C)CO)C[C@@H]1C | inactive: 1
COc1ccc(-c2csc(CCN)n2)cc1 | inactive: 0.94
CC1=CC(=O)[N-]S(=O)(=O)O1.[K+] | inactive: 0.905
C[C@@H]1CN([C@H](C)CO)C(=O)c2cc(C#CC3CCCCC3)cnc2O[C@@H]1CN(C)C(=O)c1ccncc1 | inactive: 1.03
Cc1noc(C)c1S(=O)(=O)Nc1ccc2c(c1)CC(=O)N([C@@H](C)CO)C[C@@H](C)[C@@H](CN(C)Cc1ccc(C(=O)O)cc1)O2 | inactive: 0.998
